# In PubChem BioAssay AID1345082 (National Center for Advancing Translational Sciences (NCATS), 2018):
# The whole screen tested about 94,000 compounds, of which about 4,000 (4.3%) were called active. This list was built around the results that the source calls inconclusive (neither active nor inactive); the mix of calls is not that of the screen. Calls come from the whole dose curve; as a rule, active = well fitted inhibition curve with a large enough effect; inconclusive = small, poorly fitted or top-dose-only effect; inactive = no such curve, though single readings can be large or run the other way. Potencies beside an inconclusive call are fits to weak or partial responses and may not hold up.
# Experiment: Cytotoxic Profiling in NIH 3T3 Cell Line of Diverse Libraries Using Quantitative High-Throughput Screening; note: nearly all actives have a fitted effect of over 55% in size
# Settings: NIH 3T3 viability, CellTiter-Glo ATP luminescence, 48-72 h; activity change, negative = cytotoxicity: at 96.7 µM (top of the series); series mostly up to 96.7 µM
# Outline: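 Cytotoxicity is measured as loss of cellular ATP: NIH 3T3 cells (400/well) are exposed to compound for 48 or 72 hr at 37 °C, then CellTiter-Glo luminescence is imaged after 10 min at room temperature.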
# % is set by controls: 0 for no effect and ±100 for the full control effect; potency is the fitted concentration of half-maximal effect; tags give direction and shape of the fitted curve.
Compound,outcome,Potency,"activity change, negative = cytotoxicity"
O=C(CN1C(=O)NC2(CCOCC2)C1=O)Nc1ccccc1F,inactive,,
C#CCNC(=O)c1ccc2nnc(-c3ccc(Cl)cc3)n2c1,,"inconclusive: 89.1 µM [inhibitor, single point]",
COc1ncccc1-c1cnc2[nH]cc(CC(=O)Nc3ccncc3)c2c1,,active: 31.6 µM,
COCC(=O)Nc1ccc(-c2noc([C@@H]3CCCN3Cc3ccc(OC(F)(F)F)cc3)n2)cn1,,"inconclusive: 11.2 µM [inhibitor, full curve, poor fit]",
COCC(=O)N1CCc2nc(-c3ccc(Cl)cc3)nc(-c3ccccc3)c2C1,,"inconclusive: 44.7 µM [inhibitor, partial curve, poor fit]",
Cc1cc2nc3n(c(=O)c2n1CC(=O)Nc1cccc(C(F)(F)F)c1)CCCCC3,,,inactive: -12.3%
CC1CCN(c2ccc(CNC(=O)C3(C)CCCCC(=O)N3)cc2)CC1 (configuration not stated),,,inactive: -24.2%
O=C(NCC1COc2ncncc2C(=O)N1Cc1ccccc1)c1cccs1 (configuration not stated),,"inconclusive: 89.1 µM [inhibitor, single point]",
O=c1[nH]c(N2CCOCC2)nc2c1CCN(Cc1ccc(Cl)c(F)c1)CC2,,"inconclusive: 50.1 µM [inhibitor, partial curve, poor fit]",
C=CCO[C@@H]1C[C@H]2C(=O)Nc3ccc(-c4ccc(OC)cc4)cc3C(=O)N2C1,,"inconclusive: 39.8 µM [inhibitor, partial curve, poor fit]",
CN(C(=O)Cn1cccc1-c1nc(-c2ccc(F)cc2)no1)c1ccccc1,,"inconclusive: 44.7 µM [inhibitor, partial curve, poor fit]",
Cn1cc(-c2cccc(COc3ccc4c(cnn4CC[S+](C)(=O)[O-])c3)c2)cn1,,"inconclusive: 50.1 µM [inhibitor, partial curve, poor fit]",
C=CCNC(=O)[C@@H]1Cc2cn(Cc3ccncc3)c3cccc(c23)[C@H](CC(C)C)N1,,"inconclusive: 70.8 µM [inhibitor, partial curve, poor fit]",
COc1ccc(NC(=O)Cn2cccc2-c2nc(-c3ccccc3)no2)cc1OC,,active: 31.6 µM,
O=C(NCCc1ccc(Cl)cc1)C1CCc2nnc(-c3cccc(C(F)(F)F)c3)n21 (configuration not stated),,"inconclusive: 50.1 µM [inhibitor, partial curve, poor fit]",
CN1CCOc2c(C(=O)NCCC(N)=O)cc(-c3ccccc3)cc21,,"inconclusive: 100 µM [inhibitor, single point]",
COc1ccc(CN2CCC(CO)(CCCc3ccccc3)CC2)c(Cl)c1OC,,"inconclusive: 50.1 µM [inhibitor, partial curve, poor fit]",
O=C(O)c1ccc(CN[C@@H]2CO[C@H](CNC(=O)c3ccccc3)[C@H]2O)cc1,,,inactive: -6.58% [at 174 µM]
CCOc1ccccc1C(=O)NC(C)C(=O)N1CCN(c2ccccn2)CC1 (configuration not stated),,"inconclusive: 50.1 µM [inhibitor, single point]",
O=C(NC1CC1)c1ccccc1OC1CN(Cc2ccc(C(F)(F)F)cc2)C1,,"inconclusive: 50.1 µM [inhibitor, partial curve, poor fit]",
Cn1cc(-c2cc(=O)c3ccnc(NC4CCOCC4)c3o2)cn1,,"inconclusive: 10 µM [inhibitor, full curve, poor fit]",

Compound,outcome,Potency,"activity change, negative = cytotoxicity"
COCc1noc([C@@H]2CN(Cc3cnn(C(C)C)c3)C[C@H]2C(N)=O)n1,,,inactive: -7.37%
Cn1ncc2c(C(=O)Nc3cccnc3)cc(-c3ccccc3F)nc21,,,inactive: -17.2%
O=C(NC1CCN(c2ccnc3ccnn23)C1)c1cc(F)ccc1Br (configuration not stated),,"inconclusive: 31.6 µM [inhibitor, partial curve, poor fit]",
CCOc1cc(=O)n2c(c1C(=O)Nc1cccc(Cl)c1)CCCC2,inactive,,
COc1ccc(C(=O)N2CCC3(CC2)OC(=O)N(Cc2ccc(O)cc2)C3(C)c2ccccc2)cc1 (configuration not stated),,"inconclusive: 39.8 µM [inhibitor, partial curve, poor fit]",
CN1CCC(NC(=O)Cc2c[nH]c3ncc(-c4ccccc4)cc23)CC1,,"inconclusive: 56.2 µM [inhibitor, partial curve, poor fit]",
O=C(NCCN[S+](=O)([O-])c1cccc(C(F)(F)F)c1)c1ccc(-c2cccc(C(F)(F)F)c2)cc1,,active: 28.2 µM,
COc1ccc(CNC(=O)N2CCC(c3noc(-c4ccccc4)n3)C2)cc1 (configuration not stated),,"inconclusive: 15.8 µM [inhibitor, full curve]",
COc1ccc(OC)c(S(=O)(=O)N2CCC(Cc3ncc(C)n3C3CC3)C2)c1 (configuration not stated),,,inactive: -4.3%
O=C(Nc1cc(C2CC2)nn1-c1ccccc1)c1ccc(F)cc1,,"inconclusive: 79.4 µM [inhibitor, partial curve, poor fit]",
CN1CCCCCCN(C(=O)c2ccc3ncccc3c2)[C@H]2CCC[C@H]2C1=O,,"inconclusive: 50.1 µM [inhibitor, partial curve, poor fit]",
CN(Cc1ccccc1)C(=O)Cc1ccc(N(Cc2cccc(F)c2)C(=O)c2ccco2)cc1,,active: 35.5 µM,
O=C(Cc1cccc(Cl)c1)N1CCN(C(=O)c2nc3cccnc3n(Cc3ccccc3)c2=O)CC1,,"inconclusive: 44.7 µM [inhibitor, partial curve, poor fit]",
CN(C)c1ccc(CN(C)C2CCc3ccccc3C2)cc1 (configuration not stated),,"inconclusive: 89.1 µM [inhibitor, partial curve, poor fit]",
Cc1ccc2nc(C3CCN(Cc4ccc(C#N)cc4)CC3)[nH]c(=O)c2c1,,"inconclusive: 17.8 µM [inhibitor, partial curve, poor fit]",
CCn1ncc(N2CCC(NC(=O)Cc3cccc(F)c3)CC2)cc1=O,,,inactive: -3.89%
O=C(NCc1ccc(C(F)(F)F)cc1)c1nc2sccn2c1Br,,"inconclusive: 44.7 µM [inhibitor, partial curve, poor fit]",
COCCNC(=O)C[C@@H]1C[C@@H](C(C)C)[C@H](CNS(=O)(=O)c2ccccc2)C=C1C,,active: 112 µM,
Cc1ccc(-c2c(C(=O)NCc3cccc(C(F)(F)F)c3)nc3sccn23)cc1,,"inconclusive: 17.8 µM [inhibitor, full curve, poor fit]",
COc1ccc(-c2cnc(NCc3ccccc3)c3c2CCO3)cc1,,"inconclusive: 31.6 µM [inhibitor, full curve]",
CC1(C(=O)N2CCCC(CCc3ccc(F)c(F)c3)C2)CC1 (configuration not stated),,"inconclusive: 28.2 µM [inhibitor, full curve]",

Compound,outcome,Potency,"activity change, negative = cytotoxicity"
N[C@H](Cc1ccccc1)C(=O)N1CCC2(CC1)Nc1ccccc1NC2=O,,,inactive: 0.0729%
CS(=O)(=O)N1CC2(CCN(CC3CCCCC3)CC2)Cc2ccccc21,,,inactive: 2.28%
Cn1cnc(S(=O)(=O)N2CCCCC2c2noc(COCc3ccc(F)cc3)n2)c1 (configuration not stated),,,inactive: -16.3%
COc1ccc(C(=O)N2CCc3ccc(C(=O)NC4CCCCC4)cc32)cc1,,"inconclusive: 50.1 µM [inhibitor, partial curve, poor fit]",
COc1ccc(-c2cc(-c3c(C)noc3C)cc3c2C(=O)N(C)C3)cn1,,"inconclusive: 50.1 µM [inhibitor, partial curve]",
O=C(Cn1ccn2nc(-c3ccccc3)c(CO)c2c1=O)NCCC1=CCCCC1,inactive,,
CC(C)NC(=O)N1CCC(Oc2ccccc2-c2nc(-c3ccccc3)no2)C1 (configuration not stated),,"inconclusive: 50.1 µM [inhibitor, partial curve, poor fit]",
O=C(NCc1ccco1)C1CCc2nc(N3CCN(C(=O)C4CCC4)CC3)sc2C1 (configuration not stated),,"inconclusive: 79.4 µM [inhibitor, partial curve, poor fit]",
Cn1nc(C(F)(F)F)c2cc(C(=O)N3CCC4(CCCO4)CC3)sc21,,,inactive: -15.7%
O=C(NC1CCN(Cc2ccc(-c3ccsc3)cc2)C1)c1cccc(Cl)c1 (configuration not stated),,"inconclusive: 50.1 µM [inhibitor, partial curve, poor fit]",
Cc1ccc(C2c3cc(OCc4nc(C(=O)NC5CC5)co4)ccc3CCN2C(=O)C2CC2)cc1 (configuration not stated),,"inconclusive: 39.8 µM [inhibitor, partial curve, poor fit]",
O=C(c1nnc(CNCc2cccc(F)c2)n1-c1cccnc1)N1CCC[C@@H]1C(c1ccccc1)c1ccccc1,,"inconclusive: 50.1 µM [inhibitor, partial curve, poor fit]",
CCCCCCNC(=O)Cc1csc2nc(C)c(-c3cc(C)n(-c4cccc(C)c4)n3)c(=O)n12,,"inconclusive: 44.7 µM [inhibitor, partial curve, poor fit]",
CCOC(=O)c1cccc(NC(=O)c2c(C)oc3ccn(Cc4ccc(F)cc4)c(=O)c23)c1,,"inconclusive: 44.7 µM [inhibitor, partial curve, poor fit]",
COc1ccc(NC2CCCN(C(=O)c3cc(C(C)=O)n[nH]3)C2)cc1OC (configuration not stated),,,inactive: 3.06%
CC(C)N1C(=O)CO[C@H]2CCN(Cc3ccncc3Cl)CC[C@@H]21,,"inconclusive: 70.8 µM [inhibitor, partial curve]",
Cc1ccc([S+](=O)([O-])N2CCC3OCCN(C(C)C)C(=O)C3C2)cc1 (configuration not stated),,"inconclusive: 112 µM [inhibitor, single point]",
O=C(Cc1c[nH]c2ncc(-c3ccncc3)cc12)NCc1cccnc1,,active: 79.4 µM,
O=C(NCCc1noc(-c2ccccc2)n1)c1n[nH]c2c1CCCCCC2,,"inconclusive: 39.8 µM [inhibitor, partial curve, poor fit]",
CCN1c2cc(C(=O)NCCC3=CCCCC3)ccc2C(=O)N2CCCCCC21 (configuration not stated),,"inconclusive: 2.82 µM [inhibitor, full curve, poor fit]",
